Source: the antibiotic and cytotoxicity screens of Wong et al. (2023)
This is one part of the list.

What was measured:
HSkMC = human skeletal muscle cells; test: cytotoxicity call (relative viability < 0.9); details: 10 µM
HepG2 = test: cytotoxicity call (relative viability < 0.9); details: 10 µM
S. aureus RN4220 = test: growth inhibition call (relative growth <= 0.2); details: 50 µM

CC(C)C#Cc1ccc2c(c1)O[C@@H](CN(C)S(=O)(=O)c1cn(C)cn1)[C@@H](C)CN([C@H](C)CO)S2(=O)=O
inactive: cytotoxicity call (HSkMC) | cytotoxicity call (HepG2) | growth inhibition call (S. aureus RN4220)

C[C@H](CO)N1C[C@H](C)[C@H](CN(C)S(=O)(=O)c2ccccc2)Oc2ncc(-c3cccc(C(=O)N(C)C)c3)cc2C1=O
inactive: cytotoxicity call (HSkMC) | cytotoxicity call (HepG2) | growth inhibition call (S. aureus RN4220)

C[C@H]1CN([C@@H](C)CO)S(=O)(=O)c2ccc(C#CCN(C)C)cc2O[C@H]1CN(C)Cc1ccc2c(c1)OCO2
inactive: cytotoxicity call (HSkMC) | cytotoxicity call (HepG2) | growth inhibition call (S. aureus RN4220)

COC(=O)c1c(CC[C@@H](CO)NC(=O)N[C@@H](Cc2ccccc2)Cn2cc(C3(O)CCCCC3)nn2)oc(C(C)=O)c1C(=O)OC
inactive: cytotoxicity call (HSkMC) | cytotoxicity call (HepG2) | growth inhibition call (S. aureus RN4220)

COc1ccc(S(=O)(=O)N(C)C[C@H]2Oc3c(NC(=O)c4cc(C)nn4C)cccc3C(=O)N([C@H](C)CO)C[C@H]2C)cc1
inactive: cytotoxicity call (HSkMC) | cytotoxicity call (HepG2) | growth inhibition call (S. aureus RN4220)

Cc1ccc(S(=O)(=O)N2C[C@H](O)COC[C@H]3O[C@@H](CC(=O)N[C@@H]4CCN(Cc5ccccc5)C4)CC[C@@H]32)cc1
inactive: cytotoxicity call (HSkMC) | cytotoxicity call (HepG2) | growth inhibition call (S. aureus RN4220)

C[C@@H]1CCCCO[C@H](CN(C)C(=O)Nc2ccc3c(c2)OCO3)[C@@H](C)CN([C@H](C)CO)C(=O)c2cc(NC(=O)CCC(F)(F)F)ccc2O1
inactive: cytotoxicity call (HSkMC) | cytotoxicity call (HepG2) | growth inhibition call (S. aureus RN4220)

CS(=O)(=O)N1CCN(C(=O)NCc2ccccc2)C[C@]2(CNC(=O)C2)C1
inactive: cytotoxicity call (HSkMC) | cytotoxicity call (HepG2) | growth inhibition call (S. aureus RN4220)

C[C@@H]1CN([C@@H](C)CO)C(=O)c2cc(NC(=O)Nc3ccc4c(c3)OCO4)ccc2O[C@@H]1CN(C)Cc1ccc(C(F)(F)F)cc1
inactive: cytotoxicity call (HSkMC) | cytotoxicity call (HepG2) | growth inhibition call (S. aureus RN4220)
